Measured values reported in PubChem BioAssay AID2101 (National Center for Advancing Translational Sciences (NCATS), 2009).
About 300 (0.091%) of roughly 330,000 compounds were called active. Inconclusive means that the source gave no clear call. Such entries were picked first, then a sample of the others. Calls come from the whole dose curve; as a rule, active = well fitted inhibition curve with a large enough effect; inconclusive = small, poorly fitted or top-dose-only effect, or effect the other way, or another doubt; inactive = no such curve, though single readings can be large or run the other way. No potency is given beside an inconclusive call; the fits are too rough.

These molecules were tested against Lysosomal acid glucosylceramidase (Homo sapiens) (UniProt P04062) (assay: qHTS Assay for Inhibitors and Activators of N370S glucocerebrosidase as a Potential Chaperone Treatment of Gaucher Disease). Details: N370S GC spleen homogenate, 4MU-glucoside fluorescence; activity change, negative = inhibition: at 59.4 µM (top of the series) unless noted.
Potency is the fitted concentration of half-maximal effect.
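Throughout, for activity change, negative = inhibition: 0% = full enzyme activity and -100% = no enzyme basal.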

Structure (SMILES)	Potency	activity change, negative = inhibition
CCOc1ncccc1C(=O)NCc1ccccc1F	inactive	–
c1ccc(-c2ccc(N3CC4(CCNCC4)C3)cc2)cc1	inconclusive [inhibitor, partial curve]	–
O=C(COC(=O)c1ccc(Cl)c(S(=O)(=O)N2CCCCC2)c1)NCCc1ccccc1	inconclusive [inhibitor, full curve, poor fit]	–
CC1=C(C(=O)OCCOC(C)C)C(c2cc3c(cc2Br)OCO3)C2=C(CCCC2=O)N1 (stereo not given)	inconclusive [activator, partial curve]	–
O=C(c1ccc2c(c1)N(Cc1ccccc1)CCS2)N1CCCCC1	inconclusive [activator, partial curve]	–
O=[N+]([O-])c1cc([N+](=O)[O-])c(N2CCOCC2)cc1NCc1ccccc1	inconclusive [activator, partial curve]	–
O=C(CN1C(=O)S/C(=C\c2ccccc2Cl)C1=O)NCCCn1ccnc1	inconclusive [inhibitor, partial curve]	–
COc1ccc(NC(=O)CSc2nc3nc(-c4cccs4)cc(C(F)(F)F)c3c(=O)[nH]2)c(OC)c1	inconclusive [activator, full curve]	–
COC(=O)Cc1cc(=O)oc2c(C)c(O)ccc12	inconclusive [activator, partial curve]	–
CC(C)N(Cc1nc(-c2ccccc2)no1)C(=O)c1ccc2c(c1)OCO2	inconclusive [activator, partial curve]	–
CNc1nc(-c2c[nH]c3ccccc23)cs1	inactive	–
COc1ccc2c(C#N)c3ccccn3c2c1	inconclusive [activator, partial curve]	–
O=c1oc2c(CN3CCOCC3)c(O)c(Cl)cc2c2c1CCCC2	inconclusive [activator, partial curve]	–
N=C1C(c2nc3ccccc3[nH]2)=C(O)CN1C1CCCCC1	inconclusive [activator, partial curve]	–
CCCCC(CC)CNC(=O)c1ccc2c(c1)OCO2 (stereo not given)	inconclusive [inhibitor, single point]	–
CCC(Oc1ccc2ccccc2c1)C(=O)O (stereo not given)	–	inconclusive: 26.7% [activator]
CCC/C=C1/CCCOC(C(=O)NCCOC)(C(F)(F)F)C1 (stereo not given)	inactive	–
C=CCOC(=O)C(C(C)=O)C(NC(=O)OC)c1ccc2ccccc2c1 (stereo not given)	–	inactive: 5.89% [at 12.8 µM]
CCOC(=O)c1cc(C(=O)OCC)c2ccccn2c1=O	inconclusive [activator, partial curve]	–
O=C(/C=C/c1cccc(Cl)c1)c1nc2ccccc2[nH]1	inconclusive [activator, partial curve, poor fit]	–
CCCCCCOc1ccc(/C(C)=N/NC2=NCCN2)cc1	inconclusive [inhibitor, partial curve]	–
O=C(CN(C(=O)CNC(=O)c1cccs1)c1ccccc1)NC1CCCCC1	inconclusive [inhibitor, single point]	–

Structure (SMILES)	Potency	activity change, negative = inhibition
Cc1ccc(S(=O)(=O)NC(C(=O)Oc2ccc3ccc(=O)oc3c2)c2ccccc2)cc1 (stereo not given)	inconclusive [activator, partial curve]	–
CC(=O)OC1=C(C#N)Cn2ccc3cccc1c32	–	inconclusive: 18.7% [activator]
COc1ccc(N(CC(=O)NCc2ccc(C)cc2)S(=O)(=O)c2ccccc2[N+](=O)[O-])c(OC)c1	inactive	–
O=C(NCCN1CCOCC1)c1ccc(NS(=O)(=O)c2cccc([N+](=O)[O-])c2)cc1	inconclusive [inhibitor, full curve, poor fit]	–
CC(C)(C)c1ccc(-n2ncc3c2CCCC3NC(=O)C2=NNC(=O)CC2)cc1 (stereo not given)	inactive	–
NS(=O)(=O)c1ccc(NC(=O)c2cc(-c3ccccc3O)n[nH]2)cc1	inactive	–
c1ccc(Cc2ccc(OCCn3ccnc3)cc2)cc1	inconclusive [inhibitor, single point]	–
CCCCC1=CC2=C(c3ccco3)C(=O)C(C)(OC(=O)c3ccc(OC)cc3)C(=O)C2=CO1 (stereo not given)	inactive	–
Cc1cc2nc(-c3ccc(SCC(=O)NC(C)C)nc3)[nH]c2cc1C	inactive	–
Cc1cccc2c1-c1sc(C(=O)Nc3cccnc3)cc1CO2	inconclusive [activator, partial curve]	–
CC[C@H](C)[C@H](NC(=O)CNC(=O)[C@@H](NC(=O)[C@@H](NC(=O)[C@H](Cc1ccc(O)cc1)NC(=O)[C@H](CC(C)C)NC(=O)[C@H](C)NC(=O)[C@H](CCC(N)=O)NC(=O)CNC(=O)[C@@H]1CCCN1C(=O)CNC(=O)[C@H](Cc1ccccc1)NC(=O)[C@H](Cc1cnc[nH]1)NC(=O)[C@@H](NC(=O)CNC(=O)[C@H](CCCNC(=N)N)NC(=O)[C@H](CCCNC(=N)N)NC(=O)[C@@H](NC(=O)[C@H](CC(N)=O)NC(=O)[C@@H](N)CS)[C@@H](C)O)[C@@H](C)CC)[C@@H](C)O)[C@@H](C)O)C(=O)O	inactive	–
COc1ccc(-c2cc(C(=O)N(C)Cc3ccccc3)c3ccccc3n2)cc1	inconclusive [activator, single point]	–
CCOC(=O)/C(C#N)=C/c1ccc(OCC(=O)Nc2ccc(OC)cc2)c(OC)c1	inconclusive [activator, partial curve, poor fit]	–
O[C@@H]1CCN2Cc3ccccc3N=C12	inactive	–
Cc1cccn2c(=O)c(/C=C(\C#N)C(=O)NC3CCS(=O)(=O)C3)c(Oc3ccc(F)cc3)nc12 (stereo not given)	inconclusive [activator, partial curve, poor fit]	–
Cc1ccc(Nc2ncnc3sc(C)c(C)c23)cc1	inactive	–
O=S(=O)(c1cccs1)N1CN(Cc2ccco2)c2nc3ccccc3nc21	inconclusive [activator, single point]	–
O=c1cccc2n1Cc1cc3ccccc3nc1-2	inconclusive [activator, partial curve]	–
COc1ccc(-n2c3c(cc(C(=O)N4CCC(C)CC4)c2=O)C(=O)CC(C)(C)C3)cc1	inconclusive [activator, single point]	–
N#Cc1c(NC(=O)CSc2ccccn2)oc(-c2ccccc2)c1-c1ccccc1	inconclusive [activator, full curve]	–
Nc1ccc(-c2nc3c(ccc4ccccc43)[nH]2)cc1	inconclusive [activator, single point]	–
CCOC(=O)CSC(CC)C(=O)Nc1nnc(C(C)C)s1 (stereo not given)	inconclusive [activator, partial curve]	–

Structure (SMILES)	Potency	activity change, negative = inhibition
COc1ccccc1N1CCN(/N=C\c2ccccc2)CC1	inactive	–
O=C(Nc1cccnc1)c1ccc(NS(=O)(=O)c2cccc([N+](=O)[O-])c2)cc1	inconclusive [inhibitor, partial curve]	–
O=C(NCCc1ccc(Cl)cc1)C1CCN(S(=O)(=O)c2cccs2)CC1	inconclusive [inhibitor, single point]	–
COc1cc(/C=N\n2nnnc2N)ccc1OCc1ccc(F)cc1	–	inactive: 6.08% [at 2.35 µM]
CC(=O)N1CCN(C(=O)c2cc(-c3ccc(C)o3)nc3ccccc23)CC1	inconclusive [activator, partial curve]	–
CC[C@H](C)Cc1cn([C@@H](CCCN=C(N)N)C(=O)NCCCCCCCCCCC(=O)N2CCNCC2)nn1	inconclusive [inhibitor, partial curve]	–
COC(=O)c1ccccc1NC(=O)NC1CC1	inactive	–
Nc1ccc(-c2nnc(-c3ccc(N)cc3)o2)cc1	inactive	–
COc1ccc(N(CC(=O)Nc2ccc(Cl)cc2)S(=O)(=O)c2c(C)n[nH]c2C)cc1	inconclusive [inhibitor, partial curve]	–
O=C(c1cc2c(s1)-c1ccccc1OC2)N1CCCC1	inconclusive [activator, partial curve]	–
COCCCn1c(SCCc2ccccc2)nc2cc(OC)c(OC)cc2c1=N	inconclusive [inhibitor, single point]	–
Nc1nc2c(c3c1c(=O)oc1ccccc13)CCCCC2	–	inconclusive: 25.3% [activator]
CN(C)CCNS(=O)(=O)c1ccc(N2CCc3ccccc32)c([N+](=O)[O-])c1	inconclusive [inhibitor, partial curve]	–
COc1ccccc1C1(O)CCN(CCCn2c3ccccc3c3ccccc32)CC1	inactive	–
COn1c(-c2ccc(Cl)cc2)nc2ccc(Cl)cc21	inconclusive [inhibitor, partial curve]	–
COc1ccc(CNCCC(c2ccc(OC)cc2)c2ccccc2OC)cc1 (stereo not given)	inconclusive [inhibitor, partial curve, poor fit]	–
CC(C)c1ccc(CNc2ncccn2)cc1	inactive	–
CCOc1cccc(CNc2ccc(O)cc2)c1OCc1ccccc1Cl	inactive	–
N#C/C(=C\c1c(Oc2ccccc2F)nc2ccccn2c1=O)C(=O)NC1CCS(=O)(=O)C1 (stereo not given)	inconclusive [activator, partial curve]	–
N#C/C(=C\c1ccc(Cl)cc1)c1nc(-c2ccco2)cs1	inactive	–
Cc1ccc(-c2nc(-c3cccnc3)sc2CC(=O)Nc2ccc(C)c(Cl)c2)cc1	inconclusive [activator, partial curve, poor fit]	–
